Drawing on PubChem BioAssay AID1745853 (National Center for Advancing Translational Sciences (NCATS), 2022), this text covers activity change, negative = inhibition for 30 molecules.

This is one part of the list. These are further read-outs of the screen, such as a control signal, another cell line or another target. No call is given for them.

What all share (experiment): Primary Screen for Target Class Profiling of Small Molecule Inhibitors of Methyltransferases
The target in test [1] is Glycine N-methyltransferase (Homo sapiens) (UniProt Q14749). Conditions: purified enzyme, MTase-Glo SAH luminescence; measured here: GNMT inhibition; at 40 µM; stronger effect = lower value. In a few lines: (§1)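 Each enzyme was assayed with SAM and its substrate. SAH formation detected by MTase-Glo luminescence; single-point 40 uM screen[…].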
Test [2] concerns the target Guanidinoacetate N-methyltransferase (Homo sapiens) (UniProt Q14353). The following applies: purified enzyme, MTase-Glo SAH luminescence; measured here: GAMT inhibition; at 40 µM; stronger effect = lower value. The method in brief:
as §1

Test [3] concerns the target Histamine N-methyltransferase (Homo sapiens) (UniProt P50135). The following applies: purified enzyme, MTase-Glo SAH luminescence; measured here: HNMT inhibition; at 40 µM; stronger effect = lower value. In a few lines:
as §1

For test [4], the target named is Nicotinamide N-methyltransferase (Homo sapiens) (UniProt P40261). The following applies: purified enzyme, MTase-Glo SAH luminescence; measured here: NNMT inhibition; at 40 µM; stronger effect = lower value. In a few lines: as §1
The target in test [5] is Phenylethanolamine N-methyltransferase (Homo sapiens) (UniProt P11086). The following applies: purified enzyme, MTase-Glo SAH luminescence; measured here: PNMT inhibition; at 40 µM; stronger effect = lower value. In a few lines:
as §1
% is set by controls: 0 for no effect and ±100 for the full control effect.

With `C[C@]12C=CC(=O)C=C1CC[C@@H]1[C@@H]2[C@@H](O)C[C@@]2(C)[C@H]1CC[C@]2(O)C(=O)COC(=O)CCC(=O)O`, the activity change, negative = inhibition in test [1] is -2.72%; in test [2] it was -6.08%; in test [3] it was 17.2%; in test [4], -12.3%; in test [5], 3.21%.
For the molecule `CCC(C)n1ncn(-c2ccc(N3CCN(c4ccc(OC[C@H]5CO[C@](Cn6cncn6)(c6ccc(Cl)cc6Cl)O5)cc4)CC3)cc2)c1=O` (stereo not given in full), the activity change, negative = inhibition in test [1] was -2.84%; in test [3] it was 2.16%.
Consider `CCCC1c2ccc(C)n2CCN1C(=O)NC(CC(=O)OCC)c1ccccc1` (stereo not given), for which the activity change, negative = inhibition was -9.59% in test [1]; 1.23% in test [2]; -14.2% in test [3]; -6.49% in test [4]; -9.71% in test [5].
On to `O=C(Cn1nc2nc(Nc3ccc(F)cc3)ccn2c1=O)Nc1ccc(F)cc1`, for which the activity change, negative = inhibition is -4.51% in test [1]; -5.19% in test [2]; 2.2% in test [3]; -9.66% in test [4]; -7.23% in test [5].
On to `CC(C)C[C@H](NC(=O)[C@H]1O[C@@H]1C(=O)O)C(=O)NCCCCN=C(N)N`, for which the activity change, negative = inhibition was -3.87% in test [2], -21.1% in test [4] and -9.07% in test [5].
For `CC(C)Cn1c(=O)c2ccc(C(=O)NC(C)C)cc2n2c(SCc3cccc(Cl)c3)nnc12`, the activity change, negative = inhibition in test [1] is 2.47%; in test [2], 3.93%; in test [3] it was 0.225%; in test [4], -2.67%; in test [5], 0.224%.
`CC1(C(=O)NC2CCCCC2)Cn2c(cc3ccccc32)C(=O)N1Cc1cccc(Br)c1` (stereo not given): the activity change, negative = inhibition in test [1] is -2.58%; in test [2], 1.91%; in test [3], -2.36%; in test [4], -3.03%; in test [5], 0.493%.
In the case of `C=C(C)C(O)COc1ccc(CC(=O)O)cc1` (stereo not given), the activity change, negative = inhibition in test [1] was 0.23%; in test [2] it was 2.21%; in test [3], 10.6%; in test [4], -8.03%; in test [5] it was -1.94%.
For `COC1CCC12CCNCC2` (stereo not given), the activity change, negative = inhibition was -4.86% in test [1]; -5.08% in test [2]; -2.55% in test [3]; -7.79% in test [4]; -10.3% in test [5].
`CCNC(=O)NCCc1noc(-c2ccncc2)n1`: the activity change, negative = inhibition in test [1] was 1.13%; in test [2] it was 0.459%; in test [3], 0.566%; in test [4], -2.43%; in test [5], 3.34%.
Turning to `CCN(CCNC(=O)C1CCCCC(=O)N1C)Cc1ccccc1` (stereo not given), the activity change, negative = inhibition is -0.243% in test [1]; 1.33% in test [2]; 1.94% in test [3]; -2.67% in test [4]; -0.927% in test [5].
Take `CCC(C)NC(=O)c1ccc2c(=O)n(C)c3nn(CC(=O)NC(C)C)c(=O)n3c2c1` (stereo not given): the activity change, negative = inhibition in test [1] came out at 8.54%; in test [2], 2.83%; in test [3], 7.72%; in test [4], 6.44%; in test [5] it was 8.3%.
For `COc1ccc(OC)c2c1cc1n2CC(C)(C(=O)NC2CCCCC2C)N(Cc2ccccc2)C1=O` (stereo not given) the same measures were -10.7%, -0.883%, -6.23%, -13.2% and -3.91%.
Consider `CN(Cc1nc2ccc(F)cc2[nH]1)C(=O)c1cn(CCN)nn1`, for which the activity change, negative = inhibition in test [1] is -6.08%; in test [2] it was -3.2%; in test [3] it was -1.49%; in test [4], -9.06%; in test [5] it was -4.29%.
Consider `CNc1ccc([N+](=O)[O-])cc1-n1cnc(-c2ccc(C(F)(F)F)cc2)c1`, for which the activity change, negative = inhibition in test [1] was -1.19%; in test [2], -16.4%; in test [3], -1%; in test [4], -31.8%; in test [5] it was -15.5%.
In the same order, the values of `COc1cccc(C(C)N(C)C(=O)c2cc(Cn3ccnc3C(C)C)[nH]n2)c1` (stereo not given) are -2.52%, -6.54%, -2.79%, -11% and -6.03%.
With `Cc1ccccc1CNC(=O)Cn1ccc2cc(S(=O)(=O)N3CCCC3)ccc21`, the activity change, negative = inhibition in test [1] is 1.07%; in test [2], 0%; in test [3], 2.93%; in test [4] it was -2.97%; in test [5] it was 0.765%.
For `CCCN1C(=O)c2cc(C(=O)NCCCc3ccccc3)nn2CC1(C)C(=O)NC1CCCC1` (stereo not given) the same measures were -1.33%, 1.36%, -6.76%, -3.46% and -3.02%.
Consider `CC1(C(=O)NC2CCCCC2)Cn2c(c(-n3cccc3)c3ccccc32)C(=O)N1Cc1ccccn1` (stereo not given), for which the activity change, negative = inhibition in test [1] was 4.45%; in test [2] it was 0%; in test [3] it was 5.68%; in test [4] it was -37.5%; in test [5], 3.99%.
With `COCCN1C(=O)c2cc3ccccc3n2CC1(C)C(=O)NC1CCCC1` (stereo not given), the activity change, negative = inhibition stood at 7.35% in test [1]; 0.536% in test [2]; 5.92% in test [3]; 11.1% in test [4]; 3.25% in test [5].
In the case of `CC(=O)N1CCCC(c2nn(-c3ccccn3)c(=O)[nH]2)C1` (stereo not given), the activity change, negative = inhibition in test [1] was -3.46%; in test [2], -4.62%; in test [3], -1.21%; in test [4], -11.8%; in test [5], 9.45%.
On to `CC1CCN(C(=O)Cn2c(=O)oc3cc(S(=O)(=O)N4CC(C)CC(C)C4)ccc32)CC1` (stereo not given), for which the activity change, negative = inhibition is -0.283% in test [1]; 0% in test [2]; 0.51% in test [3]; -1.17% in test [4]; -10.9% in test [5].
In the same order, the values of `CC(=O)N1CCCC1c1nc(C2CN(S(=O)(=O)c3cccc(C)c3)C2)no1` (stereo not given) are 0.409%, -2.2%, 1.22%, -1.21% and 1.36%.
In the same order, the values of `Cc1[nH]c(/C=C2\C(=O)Nc3ccc(S(=O)(=O)N(C)c4cccc(Cl)c4)cc32)c(C)c1C(=O)N1CCN(C)CC1` are -5.23%, 24.3%, -2.82%, -51.7% and 6.62%.
As to `N[C@@H](CC(=O)Nc1ccc(Oc2cc(F)c(F)cc2Br)cc1)C(=O)O`, the activity change, negative = inhibition is -3.41% in test [1]; -8.04% in test [2]; -3.98% in test [3]; -22.2% in test [4]; -43.6% in test [5].
For `CC1(C)NC(=O)N(c2ccc([N+](=O)[O-])c(C(F)(F)F)c2)C1=O` the same measures were -10.3%, 1.82%, -3.89%, -3.77% and 3.18%.
In the same order, the values of `CCOc1ccc(N2C(=O)c3cc4sc(CC)cc4n3CC2(C)C(=O)NC2CCCCCC2)cc1` (stereo not given) are 5.96%, 2.01%, 10.6%, 8.67% and 3.29%.
In the same order, the values of `CC(C)C(=O)c1cn(CC(=O)COc2ccc(Oc3ccccc3)cc2)c2ccc(C(=O)O)cc12` are -27.2%, 2.71%, -5.52%, -29.4% and -3.03%.
For `CC(O)C(=O)N1CCc2[nH]nc(C(c3ccccc3)c3ccccc3)c2C1` (stereo not given), the activity change, negative = inhibition in test [1] is -8.98%; in test [2], -12.4%; in test [3], -4.85%; in test [4] it was -17.6%; in test [5], -9.34%.
For `CCN1CCN(c2nc3c(-c4cccc(F)c4)nnn3c3ccc(Cl)cc23)CC1` the same measures were -5.14%, 1.4%, -1.08%, -0.95% and -5.53%.
